# Results taken from the supplement of paper PMC8728848.
# Some of the results follow.
# Columns and labels:
# Assay in all cases: glycan array binding signal (z-score within array); higher = stronger binding
# Conditions in all cases: glycan notation: IUPAC condensed, linker removed
# [1] = target: Neu5Ac(a2-8)Neu5Ac
# How it was run: (§1)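 From the Consortium for Functional Glycomics database, 3228 arrays were curated, keeping only those whose protein sequence was available. Binding is given as a within-array Z-score averaged across arrays sharing a protein sequence and across linkers. Negative Z-scores can be read as non-binding.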
# [2] = target: Neu5Ac(a2-8)Neu5Ac(a2-3)Gal(b1-4)Glc
# How it was run: as §1
# [3] = target: Neu5Ac(a2-8)Neu5Ac(a2-3)[GalNAc(b1-4)]Gal(b1-4)Glc
# How it was run: as §1
# [4] = target: Neu5Ac(a2-8)Neu5Ac(a2-8)Neu5Ac
# How it was run: as §1
# [5] = target: Neu5Ac(a2-8)Neu5Ac(a2-8)Neu5Ac(a2-3)Gal(b1-4)Glc
# How it was run: as §1
# [6] = target: Neu5Ac(a2-8)Neu5Ac(a2-8)Neu5Ac(a2-3)[GalNAc(b1-4)]Gal(b1-4)Glc
# How it was run: as §1
# [7] = target: Neu5Ac(a2-8)Neu5Ac(a2-8)Neu5Ac(a2-8)Neu5Ac(a2-3)[GalNAc(b1-4)]Gal(b1-4)Glc
# How it was run: as §1
# [8] = target: Neu5Ac(b2-6)Gal(b1-4)GlcNAc
# How it was run: as §1
# [9] = target: Neu5Ac(b2-6)GalNAc
# How it was run: as §1
# [10] = target: Neu5Ac9Ac(a2-3)Gal(b1-3)GlcNAc
# How it was run: as §1
# [11] = target: Neu5Ac9Ac(a2-3)Gal(b1-4)GlcNAc
# How it was run: as §1
# [12] = target: Neu5Ac9Ac(a2-6)Gal(b1-4)GlcNAc
# How it was run: as §1
# [13] = target: Neu5Gc(a2-3)Gal(b1-3)GlcNAc
# How it was run: as §1
# [14] = target: Neu5Gc(a2-3)Gal(b1-3)[Fuc(a1-4)]GlcNAc
# How it was run: as §1
# [15] = target: Neu5Gc(a2-3)Gal(b1-4)Glc
# How it was run: as §1
# [16] = target: Neu5Gc(a2-3)Gal(b1-4)GlcNAc
# How it was run: as §1
# [17] = target: Neu5Gc(a2-3)Gal(b1-4)[Fuc(a1-3)]GlcNAc
# How it was run: as §1
# [18] = target: Neu5Gc(a2-6)Gal(b1-4)GlcNAc
# How it was run: as §1
# [19] = target: Neu5Gc(a2-6)GalNAc
# How it was run: as §1
# [20] = target: Neu5Gc(b2-6)Gal(b1-4)GlcNAc
# How it was run: as §1
binder,measurement,setting,value
"ZG-16 (Homo sapiens), O60844 (protein) IQARSSSYSGEYGSGGGKRFSHSGNQLDGPITALRVRVNTYYIVGLQVRYGKVWSDYVGGRNGDLEEIFLHPGESVIQVSGKYKWYLKKLVFVTDKGRYLSFGKDSGTSFNAVPLHPNTVLRFISGRSGSLIDAIGLHWDVYPTSCSRCSRGSDDDDKAEPRGPTIKPCPPCKCPAPNLLGGPSVFIFPPKIKDVLMISLSPIVTCVVVDVSEDDPDVQISWFVNNVEVHTAQTQTHREDYNSTLRVVSALPIQHQDWMSGKEFKCKVNNKDLPAPIERTISKPKGSVRAPQVYVLPPPEEEMTKKQVTLTCMVTDFMPEDIYVEWTNNGKTELNYKNTEPVLDSDGSYFMYSKLRVEKKNWVERNSYSCSVVHEGLHNHHTTKSFSRTPGKRTYHHHHHHARKLTR",glycan array binding signal (z-score),[1],-0.156
same,glycan array binding signal (z-score),[2],-0.184
same,glycan array binding signal (z-score),[3],-0.156
same,glycan array binding signal (z-score),[4],-0.153
same,glycan array binding signal (z-score),[5],-0.127
same,glycan array binding signal (z-score),[6],-0.172
same,glycan array binding signal (z-score),[7],-0.15
same,glycan array binding signal (z-score),[8],-0.221
same,glycan array binding signal (z-score),[9],-0.139
same,glycan array binding signal (z-score),[10],0.058
same,glycan array binding signal (z-score),[11],-0.179
same,glycan array binding signal (z-score),[12],-0.234
same,glycan array binding signal (z-score),[13],-0.062
same,glycan array binding signal (z-score),[14],-0.132
same,glycan array binding signal (z-score),[15],-0.195
same,glycan array binding signal (z-score),[16],-0.2
same,glycan array binding signal (z-score),[17],-0.11
same,glycan array binding signal (z-score),[18],-0.228
same,glycan array binding signal (z-score),[19],-0.17
same,glycan array binding signal (z-score),[20],-0.151
